# Measurements as given in the BET-seq Pho4 binding data (Le et al. 2018).
# Some of the results follow. These are noisy estimates, calculated here from bound and input reads.
# Target: T1, Pho4 (S. cerevisiae) (UniProt P07270)
# T1 sequence: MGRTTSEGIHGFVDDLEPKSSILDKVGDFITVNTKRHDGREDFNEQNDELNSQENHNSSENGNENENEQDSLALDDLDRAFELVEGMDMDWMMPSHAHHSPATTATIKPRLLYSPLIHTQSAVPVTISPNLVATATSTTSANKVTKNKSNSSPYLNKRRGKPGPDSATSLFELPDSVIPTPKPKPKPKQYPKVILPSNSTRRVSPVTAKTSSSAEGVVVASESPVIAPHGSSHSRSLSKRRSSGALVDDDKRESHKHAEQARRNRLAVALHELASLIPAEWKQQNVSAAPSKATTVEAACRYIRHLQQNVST
# Assay: relative binding free energy (BET-seq); higher = weaker binding
# Conditions: reference: library average
row,Sequence,relative binding free energy [kcal/mol]
1,GCGTTCACGTGTTATT,0.24
2,CTTATCACGTGATTGA,0.23
3,CAGGTCACGTGGGGGG,0.01
4,TTCGTCACGTGGATTT,0.16
5,AGTGTCACGTGGAGAC,0.09
6,GGGCGCACGTGCTAGG,-0.19
7,ATGGGCACGTGCGTTA,-0.17
8,ATGCTCACGTGAGTTG,0.29
9,TCAATCACGTGTTGAT,0.25
10,GGCGACACGTGGGTGT,-0.07
11,GTTAGCACGTGGTGTT,-0.2
12,ATGTTCACGTGTATAG,0.19
13,GGTCACACGTGTAGGC,0.13
14,TTTCTCACGTGGAATT,0.35
15,AATAGCACGTGTTTCT,0.02
16,CTGGGCACGTGGGCAA,-0.23
17,TTGGGCACGTGAACCG,0.21
18,GTTTCCACGTGTTGAT,0.15
19,CATGACACGTGTGGGT,0.06
20,CGTATCACGTGTGTGG,0.1
21,ATGGTCACGTGTAAGT,0.24
22,AGTCACACGTGTTTTG,-0.12
23,AAGTGCACGTGTAGCG,0
24,GTTTGCACGTGGCTAA,-0.07
25,TGGCGCACGTGTACTG,0

row,Sequence,relative binding free energy [kcal/mol]
1,GCGTGCACGTGGGTTA,-0.23
2,GGAATCACGTGAGAGG,0.34
3,AGCTGCACGTGGTTTA,-0.11
4,GTTAACACGTGATCGG,0.14
5,GAAGACACGTGAGGGT,0.26
6,TGGAGCACGTGGTAGG,-0.13
7,GCTTACACGTGGGGTG,0.02
8,TCTGGCACGTGAGTGG,0.1
9,GCTGACACGTGGTGTG,-0.15
10,AGTTCCACGTGGGAGA,0.03
11,GAGGTCACGTGTAGAG,0.21
12,TAGTACACGTGAGTGG,0.18
13,ATGGCCACGTGGTGAA,-0.12
14,TGTTTCACGTGGATCA,0.22
15,GAGAGCACGTGGGTTT,-0.03
16,TAAGACACGTGGAGAG,0.11
17,AGTTGCACGTGATAAG,0.19
18,TGTTACACGTGATTTA,0.16
19,TATGTCACGTGTTGCG,0.05
20,GTTTCCACGTGTGGGA,0.14
21,AGCGTCACGTGGATGT,0.07
22,CGTTCCACGTGAGGGG,0.25
23,TTTTGCACGTGGCCGG,-0.08
24,TTGTCCACGTGAAGTA,0.23
25,TTCTACACGTGGAGTA,0.21

row,Sequence,relative binding free energy [kcal/mol]
1,CTGTGCACGTGGCAGG,-0.13
2,TATTCCACGTGTAGGG,0.12
3,TTATGCACGTGGGTCT,0
4,GGGTTCACGTGTGGTT,0.39
5,ATATTCACGTGGTAGT,0.24
6,TTCGTCACGTGGTATG,0.1
7,GTGAGCACGTGACGGG,0.17
8,TGTTGCACGTGTCCGG,0
9,AATTTCACGTGCATTG,0.15
10,GGATGCACGTGTTTTA,0.09
11,TGTTTCACGTGAGACT,0.33
12,ATTGGCACGTGGTAGA,-0.22
13,GGGGGCACGTGGCAAC,-0.05
14,GTCTTCACGTGAGTAG,0.44
15,GTTATCACGTGGAAGA,0.35
16,TTCTGCACGTGGCGAG,0
17,TTAATCACGTGGTATG,0.1
18,TATGGCACGTGTTTTG,-0.11
19,TGGAACACGTGGGTGT,-0.11
20,GGAGGCACGTGGATAG,-0.09
21,ATGATCACGTGTGATT,0.36
22,CTATGCACGTGGCGGT,-0.08
23,TGGTTCACGTGCCTTT,0.12
24,GTATCCACGTGTGGAT,0.11
25,TAGGACACGTGTGTAA,-0.02

row,Sequence,relative binding free energy [kcal/mol]
1,TTTATCACGTGTTTAG,0.21
2,TTACGCACGTGAAAGT,0.19
3,CAGTGCACGTGGACGG,-0.01
4,TCAGGCACGTGGTGCT,-0.23
5,GTAATCACGTGTAGAT,0.39
6,AGGGACACGTGGGTAA,-0.23
7,ACATGCACGTGGGGGC,-0.22
8,CTGGTCACGTGGATGC,0.07
9,GTTTACACGTGTCATG,0.26
10,TAAGTCACGTGTGTCG,0.17
11,GACTTCACGTGGGGCG,0.2
12,GAGGGCACGTGCTGAG,-0.13
13,TATCTCACGTGGAGGT,0.22
14,GAAATCACGTGTGTGG,0.05
15,AGATTCACGTGTGGTA,0.22
16,TGGCTCACGTGTGCGG,0.23
17,GGGGGCACGTGGGAAG,-0.09
18,GCTGGCACGTGGAGGC,-0.09
19,TTGTTCACGTGGTAAA,0.26
20,ATAGGCACGTGTGAGT,-0.05
21,AATGTCACGTGAGGTT,0.26
22,CTTGTCACGTGGTGGG,0.03
23,GATAACACGTGTTCTT,0.23
24,GGAAGCACGTGGCGTG,-0.23
25,GTTTGCACGTGGCTTT,0

row,Sequence,relative binding free energy [kcal/mol]
1,TGTTACACGTGAGAGT,0.32
2,AATCTCACGTGTGGGT,0.22
3,TGGCTCACGTGTCAGT,0.26
4,TGAAGCACGTGTGGCG,-0.03
5,TTAGGCACGTGATCGT,-0.04
6,AGGACCACGTGGGTTG,-0.22
7,TGTTGCACGTGGGTTG,-0.11
8,ATTATCACGTGTTTTA,0.02
9,TGTTTCACGTGTTTCG,0.28
10,ATGATCACGTGGGATA,0.02
11,AGATGCACGTGGCTCG,0.06
12,AAACGCACGTGGAGGG,-0.2
13,ATGTGCACGTGAACAG,0.2
14,GTGAGCACGTGTGCAG,-0.16
15,GTTCACACGTGGTTGA,0.05
16,AGTGGCACGTGCACGG,-0.16
17,AACGTCACGTGTGTGA,0.07
18,TTGCTCACGTGGGGAT,0.14
19,CATGTCACGTGCTGTT,0
20,TGTGACACGTGGTCGG,-0.22
21,TTGCGCACGTGTGTGA,-0.23
22,TGTTTCACGTGAAGGG,0.37
23,TGCGTCACGTGAAAGT,0.26
24,TTGTACACGTGTGGTC,0.15
25,TTTTGCACGTGAAGTG,0.29

row,Sequence,relative binding free energy [kcal/mol]
1,GGCAGCACGTGGTGAT,-0.08
2,TTGTTCACGTGCGACG,0.36
3,GAGTTCACGTGAGTGA,0.49
4,GGGAACACGTGGAAGG,0.13
5,GGTGGCACGTGCTAAG,-0.02
6,TCGGGCACGTGAGATA,0.22
7,TGCGTCACGTGTGTTT,0.15
8,AAGGTCACGTGGGCGA,-0.08
9,CTTACCACGTGTGGTT,0
10,GCGTGCACGTGGCGGA,-0.1
11,TATTACACGTGGGTGG,0.03
12,CGTGCCACGTGGGTAT,-0.23
13,GTGCTCACGTGTGGGT,0.19
14,TACTGCACGTGGGGTG,-0.13
15,TGGGGCACGTGCGGCC,-0.32
16,TGGGCCACGTGATTGT,-0.03
17,AATAGCACGTGATGGT,0.16
18,TGTGACACGTGGCAGT,-0.07
19,AATGGCACGTGATGAG,0.03
20,GTATGCACGTGGGCTA,-0.19
21,GGGCTCACGTGTGTAT,0.25
